# Measured values from PubChem BioAssay AID938 (National Center for Advancing Translational Sciences (NCATS), 2007).
# Where “and” joins values, the source holds several entries; their conditions need not be identical. Identical values can stand only once. The campaign covered roughly 73,000 compounds. About 1,800 (2.5%) were called active. The inconclusive results got no clear call from the source; some entries with a clear call stand among them for comparison. Calls follow the shape of the dose curve; as a rule, active = well fitted activation curve with a large enough effect; inconclusive = small, poorly fitted or top-dose-only effect; inactive = no such curve, though single readings can be large or run the other way. Potencies beside an inconclusive call are fits to weak or partial responses and may not hold up.
# Experiment: qHTS Assay for Agonists of the Thyroid Stimulating Hormone Receptor: Activators of Intracellular cAMP Concentrations in Parental HEK 293; also: nearly all actives have a fitted effect of over 55% in size; as to activation: % of control where 0% means no effect
# Settings: parental HEK293 CNG cAMP sensor, membrane potential fluorescence; activation: at 57.1 µM (top of the series)
# Procedure, shortened: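 Parental HEK 293 cells stably expressing a cAMP-gated CNG channel were loaded with membrane potential dye containing 100 uM RO 20-1724 for 60 min. Compound added for 30 min; depolarization read as fluorescence intensity at 590 nm.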
# Potency is read from the fitted curve at half-maximal effect; tags tell the direction and shape of the fitted curve.
Compound,Potency,activation
Nc1ccc(CCN2CCN(c3cccc(C(F)(F)F)c3)CC2)cc1,"inconclusive: 6.31 µM [activator, single point]",
O=C(CCCN1CCC2(CC1)C(=O)N(CCc1ccc(N=C=S)cc1)CN2c1ccccc1)c1ccc(F)cc1,"inconclusive: 6.31 µM [activator, single point]",
CCCCCCCC(=O)Cl,"inconclusive: 31.6 µM [activator, partial curve, poor fit]",
CP(=O)(O)CCCN,"inconclusive: 5.01 µM [activator, single point]",
C(=C/c1ccccc1)/CN1CCN(CCOC(c2ccccc2)c2ccccc2)CC1,inactive,
N[C@H](CP(=O)(O)O)C(=O)O,"inconclusive: 39.8 µM [activator, single point]",
C=CCn1c(O)c(C(CC)=Nc2cc(OC)ccc2OC)c(=O)[nH]c1=O,inactive,
CCNC(=O)[C@@H]1O[C@@H](n2cnc3c(N)ncnc32)[C@H](O)[C@H]1O,active: 0.158 µM,
O=C(Nc1ccccc1)N1CC[C@@]2(CCCN(C(=O)Oc3ccccc3)C2)C1,"inconclusive: 12.6 µM [activator, partial curve]",
COc1ccc(CCn2c(O)c(C=NCc3ccc4c(c3)OCO4)c(=O)[nH]c2=O)cc1OC,"inconclusive: 39.8 µM [activator, single point]",
CC1CCC(NCCc2ccc3c(c2)OCO3)CC1 (stereo not given),"inconclusive: 20 µM [activator, partial curve]",
O=C1CC(N(O)c2ccccc2)C(=O)N1Cc1ccccc1 (stereo not given),"inconclusive: 0.316 µM [activator, single point]",
CCN(CCCl)Cc1ccccc1Br,"inconclusive: 5.01 µM [activator, single point]",
CCCCn1c(C)c(C(=O)OCC)c2c(CN3CCOCC3)c(O)ccc21,active: 6.31 µM,
Nc1c(C(=O)OCC2CCCO2)c2nc3ccccc3nc2n1Cc1cccs1 (stereo not given),"inconclusive: 7.94 µM [activator, partial curve]",
C[N+]1(C)[C@@H]2CC[C@H]1CC(OC(=O)c1c[nH]c3ccccc13)C2 (stereo not given in full),"inconclusive: 20 µM [activator, partial curve, poor fit]",
CC(C)OS(C)(=O)=O,inactive,
C=C(CC1(C(C)NP(=O)(c2ccccc2)c2ccccc2)CC1)c1ccccc1 (stereo not given),active: 15.8 µM,
CCCCCn1c(N)c(C(=O)NCCN2CCOCC2)c2nc3ccccc3nc21,"inconclusive: 6.31 µM [activator, partial curve]",
O=C1CN=C(c2ccccc2)c2oc3ccc(Br)cc3c2N1,"inconclusive: 31.6 µM [activator, single point]",
Nc1ccc(Cc2ccc(N)cc2)cc1,"inconclusive: 39.8 µM [activator, single point]",
CCn1nc(-c2cccs2)nc2c(=O)n(C)c(=O)nc1-2,active: 3.16 µM,
CCCN1CCC[C@H](c2cccc(C#N)c2)C1,"inconclusive: 0.158 µM [activator, full curve, poor fit]",

Compound,Potency,activation
CCN1C[C@@]2(C)CC[C@H](O)[C@@]34[C@@H]5C[C@H]6[C@H](O)[C@@H]5[C@](O)(C[C@@H]6OC)[C@H](C[C@@H]23)[C@H]14,inactive,
Cc1cscn1,"inconclusive: 6.31 µM [activator, full curve, poor fit]",
c1ccncc1,"inconclusive: 15.8 µM [activator, partial curve, poor fit]",
C[C@@H](C(=O)OC1C[C@H]2CC[C@@H](C1)N2C)c1ccc(Br)cc1 (stereo not given in full),"inconclusive: 7.94 µM [activator, full curve]",
CN1CCCC2(CCN(C(=O)Oc3ccccc3)CC2)C1,"inconclusive: 31.6 µM [activator, single point]",
c1ccc2c(c1)-c1cccc3cccc-2c13,"inconclusive: 39.8 µM [activator, single point]",
CCCCn1c(O)c(C(CC)=Nc2ccc3c(c2)CCC3)c(=O)[nH]c1=O,"inconclusive: 25.1 µM [activator, single point]",
CN(C)CCCc1c[nH]c2ccccc12,,inactive: 1.18% [at 11.4 µM]
CCCn1c(C)c(C(=O)c2ccc3ccccc3c2)c2ccccc21,"inconclusive: 39.8 µM [activator, single point]",
c1ccc(N2CCCC3(CCNCC3)C2)cc1,"inconclusive: 25.1 µM [activator, single point]",
C[C@@H](Cc1ccc(O)cc1)NC[C@@H](O)c1cc(O)cc(O)c1,"inconclusive: 25.1 µM [activator, single point] and inconclusive: 15.8 µM [activator, single point]",
COC(=O)c1c(C)n(Cc2ccc3c(c2)OCO3)c2ccc(O)cc12,"inconclusive: 5.01 µM [activator, full curve]",
CN(C)c1ccc(N=O)cc1,inactive,
CCCCn1c(O)c(C(C)=NCCc2ccccc2)c(=O)[nH]c1=O,"inconclusive: 20 µM [activator, partial curve]",
O=C1Nc2ccccc2C2(CCN(CCc3ccc(C(F)(F)F)cc3)CC2)O1,"inconclusive: 1 µM [activator, single point]",
Clc1ccc(CO[C@@H](Cn2ccnc2)c2ccc(Cl)cc2Cl)cc1,active: 15.8 µM,
C=CC=O,"inconclusive: 39.8 µM [activator, single point]",
CSC([N-]/N=C/c1cccc(C)n1)=[S]=[Cu].CS[C@H]([S-])[N-]/N=C/c1cccc(C)n1,,inactive: -1.68% [at 11.4 µM]
O=C(Oc1ccccc1)N1CCC2(CC1)CN(C(c1ccccc1)c1ccccc1)C2,active: 31.6 µM,
S=C1NCCN1,,inconclusive: 31.5% [activator]
CCOC(=O)N(CC)c1ccc(C(O)(C(=O)OCC)C(F)(F)F)cc1 (stereo not given),"inconclusive: 31.6 µM [activator, partial curve]",
CN1[C@@H]2CC(OC(=O)[C@H](CO)c3ccccc3)C[C@@H]1[C@H]1O[C@H]12 (stereo not given in full),"inconclusive: 39.8 µM [activator, single point]",
